Assay results: PubChem BioAssay AID624417 (National Center for Advancing Translational Sciences (NCATS), 2012)
About 6,400 (1.6%) of roughly 410,000 compounds were called active. Inconclusive results, whose numbers are uncertain, are shown with a selection of clear calls. Calls follow the shape of the dose curve; as a rule, active = well fitted inhibition curve with a large enough effect; inconclusive = small, poorly fitted or top-dose-only effect; inactive = no such curve, though single readings can be large or run the other way. Potencies of inconclusive entries are left out as doubtful fits.

target: Glucagon-like peptide 1 receptor (Homo sapiens) (UniProt P43220); experiment: qHTS of GLP-1 Receptor Inverse Agonists (Inhibition Mode); details: HEK293 GLP-1R CRE-luciferase, luminescence, 24 h, GLP-1R form is constitutively active; series mostly up to 38.3 µM; also: nearly all actives have a fitted effect of over 55% in size
Method in brief: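 Seeding at 200 cells/uL, 12 h culture, 24 hr compound treatment, then luciferase reagent and a luminescence read; cells are HEK293 stably expressing a constitutively active GLP-1R plus cAMP-responsive luciferase.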
Potency is read from the fitted curve at half-maximal effect; tags tell the direction and shape of the fitted curve.

Sequence of UniProt P43220 (P43220 whole entry, looked up): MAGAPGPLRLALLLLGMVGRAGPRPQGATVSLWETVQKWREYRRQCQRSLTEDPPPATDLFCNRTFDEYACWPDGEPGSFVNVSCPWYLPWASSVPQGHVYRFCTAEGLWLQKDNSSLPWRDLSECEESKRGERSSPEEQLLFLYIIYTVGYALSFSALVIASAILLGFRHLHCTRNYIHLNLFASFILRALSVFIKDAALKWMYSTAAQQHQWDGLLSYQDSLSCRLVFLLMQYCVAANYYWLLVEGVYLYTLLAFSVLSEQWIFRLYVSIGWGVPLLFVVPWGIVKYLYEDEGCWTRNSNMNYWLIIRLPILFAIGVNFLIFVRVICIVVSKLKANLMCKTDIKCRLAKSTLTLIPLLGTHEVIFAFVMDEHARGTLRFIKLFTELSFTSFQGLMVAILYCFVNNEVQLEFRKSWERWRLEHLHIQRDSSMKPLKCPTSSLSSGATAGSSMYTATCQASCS

| SMILES | Potency |
| --- | --- |
| Cc1c(Cl)cccc1NC(=O)Cn1nc(C(F)(F)F)c2c1CCC2 | inconclusive [inhibitor, single point] |
| O=C(/C=C/c1ccccc1)CCN1CCOCC1 | inactive |
| CC1CCCN(C(=O)c2cccc(S(=O)(=O)Nc3cc(C(F)(F)F)ccc3Cl)c2)C1 (configuration not stated) | inconclusive [inhibitor, partial curve, poor fit] |
| CSc1ccccc1NC(=O)COc1ccccc1C | inconclusive [inhibitor, single point] |
| Cc1cccc(C(=O)C2CCOC(C)(C)C2)c1 (configuration not stated) | inconclusive [inhibitor, partial curve, poor fit] |
| COc1ccc(OC)c(CNC(=O)c2ccccc2NC(=O)c2nsc3ccccc23)c1 | inactive |
| O=C1CCCCCN1Sc1ccccc1 | inactive |
| CC(C)NC1CCC(Nc2ccnc3cc(Cl)ccc23)CC1 (configuration not stated) | inconclusive [inhibitor, full curve, poor fit] |
| COc1cccc2cc(-c3cn4c(n3)sc3cc(F)ccc34)c(=O)oc12 | inactive |
| COc1ccc(NS(=O)(=O)c2cccc(C(=O)NNC(=O)c3cc(C)oc3C)c2)cc1 | inconclusive [inhibitor, single point] |
| COc1ccc(C(=O)NCC(c2cccs2)S(=O)(=O)c2ccc(F)c(C)c2)cc1 (configuration not stated) | inconclusive [inhibitor, single point] |
| CCC(CC)C(=O)Nc1ccc(Sc2ccc([N+](=O)[O-])cc2)cc1 | inconclusive [inhibitor, full curve, poor fit] |
| CC(=O)Nc1ccc(C)cc1-c1nc2ccccc2n(CC(=O)c2ccc(Cl)cc2)c1=O | inactive |
| Cc1ccc(F)c([C@H]2[C@@H]3C=CCC[C@@]3(C)C(=O)N2Cc2ccccc2)c1 | inconclusive [inhibitor, partial curve, poor fit] |
| C=CCn1c(O)c(N=NC(=S)Nc2ccccc2C)c2cc(S(=O)(=O)N3CCOCC3)ccc21 | inconclusive [inhibitor, partial curve, poor fit] |
| CCCOC(=O)C1=C(C)NC(=O)NC1c1cccc2ccccc12 (configuration not stated) | inconclusive [inhibitor, partial curve, poor fit] |
| CCOC(=O)c1ccc(NC(=O)C2Cc3ccccc3C(=O)O2)cc1 (configuration not stated) | inactive |
| O=C(Nc1ccc(Cl)c(Cl)c1)Oc1ccc(NC(=O)c2ccco2)cc1 | inconclusive [inhibitor, single point] |
| Clc1cccc(N2CCN(c3ncnc4c3nc3n4CCCC3)CC2)c1 | inconclusive [inhibitor, single point] |
| CCOC(=O)Cc1csc(NC(=O)CSc2ncnc3c2cnn3-c2ccc(OC)cc2)n1 | inconclusive [inhibitor, single point] |
| Brc1ccc(CNCCCSc2nnnn2-c2ccccc2)cc1 | inactive |
| O=C(/C=C/c1ccccc1)Oc1cccc2cccnc12 | inconclusive [inhibitor, full curve, poor fit] |
| CCCC(=O)N1CCC1(C)C(=O)NS(=O)(=O)c1ccc(Cl)cc1 (configuration not stated) | inactive |

| SMILES | Potency |
| --- | --- |
| NC(=O)C1CCN(C(=O)CCNS(=O)(=O)c2ccccc2F)CC1 | inactive |
| CN(C)CCCN(C(=O)c1ccc(C(=O)c2ccccc2)cc1)c1nc2c(F)cccc2s1 | inconclusive [inhibitor, single point] |
| Nc1ncnc(Oc2cccc3cccnc23)c1[N+](=O)[O-] | inconclusive [inhibitor, partial curve, poor fit] |
| c1ccc(OCCOCCN2CCOCC2)cc1 | inactive |
| Cc1nc2c(Br)cc(Br)cc2cc1O | inconclusive [inhibitor, single point] |
| COC(=O)C1=CN(c2cccc(C(F)(F)F)c2)C=C(C(=O)OC)C1c1ccc(O)c(OC)c1 | inconclusive [inhibitor, partial curve, poor fit] |
| CC(C)c1ccc(Nc2ncc3c(n2)CCN(C(=O)Nc2ccc(F)c(Cl)c2)C3)cc1 | inconclusive [inhibitor, partial curve, poor fit] |
| CC(C)(C)NC(=S)NC1CC1 | inactive |
| CCOC(=O)c1ccc(NC(=O)CCC2COc3ccccc3O2)cc1 (configuration not stated) | inconclusive [inhibitor, partial curve, poor fit] |
| CC(C)(C)c1ccc(C(=O)NC(CC(=O)O)c2ccc(OC3CCCC3)cc2)cc1 (configuration not stated) | inconclusive [inhibitor, single point] |
| CCCN(C(=O)c1cc(-c2ccco2)nc2ccccc12)c1c(N)n(Cc2ccccc2)c(=O)[nH]c1=O | inactive |
| COc1ccccc1Cc1c(-c2cccc(Br)c2)nc2c(C)cc(Br)cn12 | inconclusive [inhibitor, single point] |
| COc1ccc(N2C(=O)c3ccc(C(=O)Nc4cc(OC)ccc4OC)cc3C2=O)cc1 | inactive |
| O=C(NCc1ccc(F)cc1)C(c1ccccc1)c1ccccc1 | inconclusive [inhibitor, partial curve, poor fit] |
| CCOc1ccc(NC(=O)C2C3CCC4C(CCC32)C4(Cl)Cl)cc1 (configuration not stated) | active: 7.08 µM |
| CCN(C(=O)CSc1nc2cc(C(=O)OC)ccc2c(=O)n1Cc1ccco1)c1cccc(C)c1 | inactive |
| Cc1cc(C)c(S(=O)(=O)NC2CC(C)(C)NC(C)(C)C2)cc1C | inconclusive [inhibitor, partial curve, poor fit] |
| O=C(Nc1nnc(Cc2ccccc2)s1)c1ccccc1 | inactive |
| CC1CCCC(NC(=O)COC(=O)[C@@H](NC(=O)c2ccc(F)cc2)C(C)C)C1C (some centres not stated) | inconclusive [inhibitor, single point] |
| O=C(NC1CCCc2ccccc21)C1CCN(c2nnc(-n3cccc3)s2)CC1 (configuration not stated) | inconclusive [inhibitor, single point] |
| CN(C(=O)COC(=O)CNC(=O)c1cccs1)c1c(N)n(Cc2ccccc2)c(=O)[nH]c1=O | inconclusive [inhibitor, full curve] |
| COc1ccccc1-c1noc(-c2ccc(N(C)Cc3ccccc3)c([N+](=O)[O-])c2)n1 | inactive |
| CCCCN(CC)C(=O)CCn1c(=O)c2cccn2c2cccnc21 | inactive |

| SMILES | Potency |
| --- | --- |
| COc1ccc(S(=O)(=O)NCc2ccccn2)cc1NC(=O)c1ccccc1F | inconclusive [inhibitor, full curve, poor fit] |
| Clc1ccc2nc(N3CCCCC3)[nH]c2c1 | inconclusive [inhibitor, single point] |
| CSc1cccc(NC(=O)N2CCCC(CNS(=O)(=O)Cc3ccccc3)C2)c1 (configuration not stated) | inconclusive [inhibitor, single point] |
| COc1ccccc1C(=O)c1c(N)c(-c2nc(-c3ccccc3)cs2)c2ccccn12 | inconclusive [inhibitor, partial curve, poor fit] |
| COc1ccc(OCCOc2ccc(S(=O)(=O)N3CCCC3)cc2[N+](=O)[O-])cc1 | inconclusive [inhibitor, partial curve, poor fit] |
| Cc1cc(NC(=O)CSc2nc(-c3ccco3)cc(C(F)(F)F)n2)no1 | inconclusive [inhibitor, full curve, poor fit] |
| COc1ccc(Cl)cc1NC(=O)CN(C)C(=O)c1cc2ccccc2cc1OC | active: 10 µM |
| COc1ccccc1NC(=O)N1CCCC1C(=O)NCc1ccc(F)cc1 (configuration not stated) | inconclusive [inhibitor, full curve, poor fit] |
| c1ccc(CNn2nnc3ccccc32)cc1 | inactive |
| CCCOP(=O)(c1ccc(N(C)C)cc1)C(O)c1ccc(Br)cc1 (configuration not stated) | inconclusive [inhibitor, partial curve, poor fit] |
| Cc1ccc(CN2CCCn3nc(C(=O)NCc4ccccc4Cl)cc3C2=O)cc1 | inconclusive [inhibitor, single point] |
| CC(C)Cn1c(N)c(C(=O)CSc2ncn[nH]2)c(=O)n(C)c1=O | inactive |
| COc1ccc(CCNC(=O)/C=C/c2ccc3ccccc3n2)cc1OC | inactive |
| CCc1ccc2c(c1)NC(=O)C2(C)Cc1ccc(C(F)(F)F)nc1 (configuration not stated) | inactive |
| Cc1ccnc(NC(=O)c2cc(S(=O)(=O)N3CCCCC3)ccc2Cl)c1 | inconclusive [inhibitor, full curve, poor fit] |
| CCOC(=O)c1c(S(=O)(=O)NCC(=O)Nc2ccc(Cl)c(C(F)(F)F)c2)c(C)n(C)c1C | inconclusive [inhibitor, single point] |
| S=C1NC[C@H](Cc2ccccc2)N1CC1CCN(CCCC2CCCC2)CC1 | inconclusive [inhibitor, partial curve, poor fit] |
| O=C(C[n+]1ccc(C(=O)c2ccccc2)cc1)Nc1ccc(C(F)(F)F)cc1 | inconclusive [inhibitor, partial curve, poor fit] |
| CCCCNC(=O)CSc1nc(Cc2ccccc2)nc2ccccc12 | inconclusive [inhibitor, single point] |
| O=C(O)c1cc(O)c2c(c1)[C@@H]([C@H]1c3cc(C(=O)O)cc(O)c3C(=O)c3c(O[C@@H]4O[C@H](CO)[C@@H](O)[C@H](O)[C@H]4O)cccc31)c1cccc(O[C@@H]3O[C@H](CO)[C@@H](O)[C@H](O)[C@H]3O)c1C2=O | inactive |
| CCCc1cc(N2CCN(C(=O)c3ccco3)CC2)n2c(nc3ccccc32)c1C#N | inconclusive [inhibitor, single point] |
